Results reported in the supplement of paper PMC10126150.
Values marked as one replicate rest on one cluster of the flow cell; about a third of the high ones do not repeat.

The sequences below were run on ATP (assay: switch fluorescence ratio, 500 uM ATP over buffer (Cy3 cluster intensity, sum of 5 cycles each) (fold (ratio)); higher = stronger signal-on switching upon ATP binding; sequences stand for … in TCGTCGGCAGCGTCAGATGTGTATAAGAGACAGTTTTTTTTTTTTTTTTTTTTTTTTT…TC). Settings: aptamer strand: ATP DNA aptamer (quencher-CACCTGGGGGAGTATTGCGGAGGAAGG + anchor), 100 nM annealed; ATP concentration: 500 uM; one replicate.
Outline: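 Between each of five buffer/ATP cycles, the flow-cell was stripped with NaOH and re-annealed. Each cycle imaged Cy3-labelled switching-strand clusters, annealed to 100 nM quencher-labelled ATP aptamer on a modified Illumina MiSeq flow-cell, first in selection buffer and then after 15 min with 500 uM ATP at 22 °C. The fluorescence ratio is summed target-cycle over summed buffer-cycle Cy3 intensity per cluster, averaged per switch-domain sequence, with clusters outside 100-1000 RFU excluded.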
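Note: ATP exposure 15 min at 22 °C before imaging.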

Sequence | switch fluorescence ratio
TAAAGCATGC | 1.07
TAAAGCCACG | 1.05
TAAAGGCAGC | 0.995
TAAAGGTGAG | 0.938
TAAAGTAGCA | 0.996
TAAAGTAGTG | 1.01
TAAAGTATCA | 1.03
TAAAGTGCGC | 1.03
TAAAGTGTTT | 1
TAAAGTTTAT | 0.966
TAAAGTTTGA | 1.01
TAAATATATA | 1
TAAATCCACT | 1.09
TAAATCCGAA | 1
TAAATCGAAC | 1.09
TAAATCGCAC | 1.17
TAAATGAAAC | 1.11
TAAATGAGGC | 1
TAAATGTGCT | 0.957
TAAATGTGGC | 0.89
TAAATTGGAT | 1.01
TAAATTTGG | 1.02
TAAATTTT | 1.05
TAACAAGGAA | 1.06
TAACAATGTT | 0.999
TAACACGCAA | 3.29

Sequence | switch fluorescence ratio
TAACACGGGT | 0.978
TAACAGGAAG | 0.974
TAACAGGCCT | 0.914
TAACAGTTGA | 0.983
TAACAGTTTC | 0.949
TAACATTGTT | 0.989
TAACCAACCA | 1.06
TAACCAGATG | 1.11
TAACCCGCTT | 0.999
TAACCCTCCT | 1.36
TAACCGCGGC | 1.11
TAACCGTATG | 1.03
TAACGGCAAT | 1.86
TAACGTAATG | 1.22
TAACGTACGT | 1.12
TAACGTCCAC | 1.24
TAACGTGTTG | 1.02
TAACGTTTAC | 1.14
TAACTATTA | 1.02
TAACTATTAG | 0.991
TAACTCCTGC | 1.08
TAACTCGCCT | 1.06
TAACTGAAAG | 1.03
TAACTGTGGC | 1
TAACTGTTTC | 1.02
TAACTTAGGT | 0.976

Sequence | switch fluorescence ratio
TAACTTGGAC | 1.01
TAACTTTAAC | 1.02
TAACTTTAGG | 0.992
TAAGAAAAGA | 1
TAAGAAATTT | 1.03
TAAGAACTCC | 1.07
TAAGAAGAAA | 1.01
TAAGAGCCCT | 1.02
TAAGAGCGCA | 0.977
TAAGAGGTCC | 1.05
TAAGAGGTCT | 0.994
TAAGAGTCCA | 1.01
TAAGAGTGTG | 0.983
TAAGCACCTG | 1.14
TAAGCACGGT | 1.07
TAAGCACGTC | 1.16
TAAGCATTCA | 0.987
TAAGCCGGCT | 1.21
TAAGCCTCCA | 0.999
TAAGCGAGAT | 1.01
TAAGCGAGCT | 0.989
TAAGCGGCTA | 1.04
TAAGCGTCAG | 1.02
TAAGCGTGCG | 1.01
TAAGCTAGCT | 0.98
TAAGCTGAAG | 1.03

Sequence | switch fluorescence ratio
TAAGGAGTTG | 1.03
TAAGGATCCG | 1.17
TAAGGATGAG | 0.971
TAAGGCCATG | 0.978
TAAGGCTGAT | 1.04
TAAGGGACAT | 1.01
TAAGGGACTC | 1.01
TAAGGGCTAA | 1.04
TAAGGTTATT | 0.978
TAAGTAGAGT | 1
TAAGTATCAG | 0.945
TAAGTATCTG | 0.983
TAAGTCAAGG | 1
TAAGTCCCGT | 0.999
TAAGTCTGCT | 0.988
TAAGTGAAGG | 1.01
TAAGTGCGAC | 1.04
TAAGTGGGCG | 1.12
TAAGTGTAGT | 1.04
TAAGTTATGA | 1.05
TAAGTTTCTA | 0.971
TAATAAAACA | 0.983
TAATAAGGGC | 0.985
TAATAATAAA | 0.981
TAATAATCGT | 0.977
TAATACGGTA | 1.13

Sequence | switch fluorescence ratio
TAATAGGAGA | 0.99
TAATATAGTA | 0.96
TAATATCAGT | 0.991
TAATATCGT | 1.03
TAATATGCGA | 1.02
TAATCCCTCC | 1.16
TAATCCCTGC | 1.04
TAATCTATCT | 0.978
TAATCTCTTA | 1.01
TAATGAACGG | 1.02
TAATGAAGTA | 1.03
TAATGAATGG | 0.926
TAATGCGCAT | 1.04
TAATGCTAC | 1.2
TAATGGATTA | 1
TAATGGGCTC | 0.993
TAATGGGTCG | 1.01
TAATGGTTCT | 1.02
TAATTCCACG | 1.05
TAATTCGCCC | 1.03
TAATTGACGA | 1.06
TAATTTAAGC | 0.947
TAATTTAGAG | 0.985
TAATTTCATA | 0.987
TAATTTGCCT | 1.03
TACAACATGT | 1

Sequence | switch fluorescence ratio
TACAACTACG | 1.18
TACAATGCGG | 1.03
TACAATGGTC | 0.947
TACACACAAG | 1.33
TACAGAGGGT | 1.01
TACAGCAATT | 1.74
TACAGCCATT | 1.07
TACAGGTCGC | 1.05
TACAGGTCTT | 0.983
TACATACTGA | 1.3
TACATAGAGC | 0.994
TACATATTTA | 1.06
TACATCAATC | 1.06
TACATGCTTC | 1.01
TACATGGGAC | 0.996
TACATTAACT | 1.06
TACATTCGAC | 1.03
TACATTTTAT | 1.01
TACATTTTGC | 0.956
TACCAAACCT | 2.55
TACCAATGG | 1.02
TACCAATTTT | 1
TACCACCCCA | 1.16
